Reference: publication PMC12820563
Some of the results follow. The list includes weakly bound sequences.

Target: T1, MBP-FoxP3dN (UniProt Q99JB6)
T1 sequence: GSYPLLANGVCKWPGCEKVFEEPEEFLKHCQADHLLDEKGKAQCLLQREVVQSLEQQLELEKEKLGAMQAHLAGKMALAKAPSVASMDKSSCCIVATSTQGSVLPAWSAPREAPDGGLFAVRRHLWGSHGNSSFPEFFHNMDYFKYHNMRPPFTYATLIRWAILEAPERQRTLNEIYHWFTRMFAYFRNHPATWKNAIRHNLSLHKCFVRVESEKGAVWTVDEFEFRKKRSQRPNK
Assay: PD-seq (MBP pull-down with sequencing)
Details: 20 mM Tris-HCl pH 7.5, 100 mM NaCl, 1.5 mM MgCl2, 0.4 uM protein, 0.1 uM dsDNA library, 30 min, room temperature, amylose pull-down; high values mean tight binding; double strand, one strand shown

Sequence	binding signal (RPM ratio (pull-down/input))
GATGATTGTTCTCCCAGCTGATGAATTACGGTGCTCGAGTAAACAAATTTTCCTAATCTTTCTGTTCAAGCGCCATCTAC	0.603
GATGATTGTTCTCCCAGCTGATGAATTCGTGACTTCGAGTAAACAAATTTTCCTAATCTTTCTGTTCAAGCGCCATCTAC	0.606
GATGATTGTTCTCCCAGCTGATGAATTCATGTTATCGAGTAAACAAATTTTCCTAATCTTTCTGTTCAAGCGCCATCTAC	1.28
GATGATTGTTCTCCCAGCTGATGAATTTCGGGGCTCGAGTAAACAAATTTTCCTAATCTTTCTGTTCAAGCGCCATCTAC	0.284
GATGATTGTTCTCCCAGCTGATGAATTAGTAGAATCGAGTAAACAAATTTTCCTAATCTTTCTGTTCAAGCGCCATCTAC	0.317
GATGATTGTTCTCCCAGCTGATGAATTCGTATACTCGAGTAAACAAATTTTCCTAATCTTTCTGTTCAAGCGCCATCTAC	4.11
GATGATTGTTCTCCCAGCTGATGAATTTACGGGTTCGAGTAAACAAATTTTCCTAATCTTTCTGTTCAAGCGCCATCTAC	0.55
GATGATTGTTCTCCCAGCTGATGAATTCTAGAAATCGAGTAAACAAATTTTCCTAATCTTTCTGTTCAAGCGCCATCTAC	0.269
GATGATTGTTCTCCCAGCTGATGAATTTTTCTGTTCGAGTAAACAAATTTTCCTAATCTTTCTGTTCAAGCGCCATCTAC	0.264
GATGATTGTTCTCCCAGCTGATGAATTAACTTACTCGAGTAAACAAATTTTCCTAATCTTTCTGTTCAAGCGCCATCTAC	0.694
GATGATTGTTCTCCCAGCTGATGAATTCCTGGGCTCGAGTAAACAAATTTTCCTAATCTTTCTGTTCAAGCGCCATCTAC	0.186
GATGATTGTTCTCCCAGCTGATGAATTTACAGGCTCGAGTAAACAAATTTTCCTAATCTTTCTGTTCAAGCGCCATCTAC	0.441
GATGATTGTTCTCCCAGCTGATGAATTGGCGCCTTCGAGTAAACAAATTTTCCTAATCTTTCTGTTCAAGCGCCATCTAC	3.06
GATGATTGTTCTCCCAGCTGATGAATTTGTTATTTCGAGTAAACAAATTTTCCTAATCTTTCTGTTCAAGCGCCATCTAC	7.62
GATGATTGTTCTCCCAGCTGATGAATTTACTCGCTCGAGTAAACAAATTTTCCTAATCTTTCTGTTCAAGCGCCATCTAC	0.399
GATGATTGTTCTCCCAGCTGATGAATTTGGGCGCTCGAGTAAACAAATTTTCCTAATCTTTCTGTTCAAGCGCCATCTAC	0.605

Sequence	binding signal (RPM ratio (pull-down/input))
GATGATTGTTCTCCCAGCTGATGAATTGCTGGCTTCGAGTAAACAAATTTTCCTAATCTTTCTGTTCAAGCGCCATCTAC	0.508
GATGATTGTTCTCCCAGCTGATGAATTCAGTGGTTCGAGTAAACAAATTTTCCTAATCTTTCTGTTCAAGCGCCATCTAC	1.28
GATGATTGTTCTCCCAGCTGATGAATTTTCTGGGTCGAGTAAACAAATTTTCCTAATCTTTCTGTTCAAGCGCCATCTAC	0.203
GATGATTGTTCTCCCAGCTGATGAATTACCACTATCGAGTAAACAAATTTTCCTAATCTTTCTGTTCAAGCGCCATCTAC	0.53
GATGATTGTTCTCCCAGCTGATGAATTACGTTGGTCGAGTAAACAAATTTTCCTAATCTTTCTGTTCAAGCGCCATCTAC	1.3
GATGATTGTTCTCCCAGCTGATGAATTCCCTTGATCGAGTAAACAAATTTTCCTAATCTTTCTGTTCAAGCGCCATCTAC	0.24
GATGATTGTTCTCCCAGCTGATGAATTAACGTGCTCGAGTAAACAAATTTTCCTAATCTTTCTGTTCAAGCGCCATCTAC	0.376
GATGATTGTTCTCCCAGCTGATGAATTCATCAGGTCGAGTAAACAAATTTTCCTAATCTTTCTGTTCAAGCGCCATCTAC	0.306
GATGATTGTTCTCCCAGCTGATGAATTCAGAGGGTCGAGTAAACAAATTTTCCTAATCTTTCTGTTCAAGCGCCATCTAC	0.25
GATGATTGTTCTCCCAGCTGATGAATTATTAACGTCGAGTAAACAAATTTTCCTAATCTTTCTGTTCAAGCGCCATCTAC	0.437
GATGATTGTTCTCCCAGCTGATGAATTCCGTGGTTCGAGTAAACAAATTTTCCTAATCTTTCTGTTCAAGCGCCATCTAC	0.92
GATGATTGTTCTCCCAGCTGATGAATTGTAATGATCGAGTAAACAAATTTTCCTAATCTTTCTGTTCAAGCGCCATCTAC	1.02
GATGATTGTTCTCCCAGCTGATGAATTTCAAACCTCGAGTAAACAAATTTTCCTAATCTTTCTGTTCAAGCGCCATCTAC	0.235
GATGATTGTTCTCCCAGCTGATGAATTATTTACCTCGAGTAAACAAATTTTCCTAATCTTTCTGTTCAAGCGCCATCTAC	2.68
GATGATTGTTCTCCCAGCTGATGAATTGCCATTATCGAGTAAACAAATTTTCCTAATCTTTCTGTTCAAGCGCCATCTAC	1.32
GATGATTGTTCTCCCAGCTGATGAATTCACTGCCTCGAGTAAACAAATTTTCCTAATCTTTCTGTTCAAGCGCCATCTAC	0.362
